Laboratory results from publication PMC13083723 (Patterns, 2026).
Among all 5,400 compounds or so, about 190 (3.5%) showed an effect of 50% or more. This is one part of the list.

Test system: Vero-E6
Test: primary screen, phospholipidosis by LipidTOX staining; higher = more effect of the substance
Details: 10 µM
How it was run: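 Drug-induced phospholipidosis detected with HCS LipidTOX Red reagent in Vero-E6 cells. Compounds tested at 10 μM, with amiodarone (10 μM) as positive control and DMSO (0.1 v/v %) as vehicle.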

Question: For FC(F)(F)c1ccc(CNc2ccc(Cc3c[nH]c4ncccc34)cn2)cc1, which result_ITMP is on record?
Answer: The result_ITMP was -4.34%.

Question: How did the result_ITMP turn out when CCCc1cc(C(N)=S)ccn1 was run?
Answer: The result_ITMP was 1.13%.

Question: With COc1cc2c(Nc3ccc(NC(=O)c4ccccc4)cc3)ncnc2cc1OCCCN1CCOCC1 as the compound, how does the result_ITMP read?
Answer: Its result_ITMP is -3.61%.

Question: Which result_ITMP does the source give for CC(C)CNc1ccnc(NCc2csc(-c3ccccc3)n2)n1 here?
Answer: Its result_ITMP is 46.9%.

Question: Which result_ITMP does the source give for CC(=O)Nc1ccc(C(=O)Nc2ccccc2N)cc1 here?
Answer: Its result_ITMP is 10%.

Question: How did the result_ITMP turn out when CC(Cc1cccc(C(F)(F)F)c1)NCCOC(=O)c1ccccc1 (stereo not drawn) was run?
Answer: Its result_ITMP is 6.92%.

Question: With Cc1ccnc(NC(=O)C(C)c2cccc(C(=O)c3ccccc3)c2)c1 (stereo not drawn) as the compound, how does the result_ITMP read?
Answer: The result_ITMP was -3.2%.

Question: With N=C(N)NC(=N)Nc1cccc(Cl)c1 as the compound, how does the result_ITMP read?
Answer: Its result_ITMP is 6.24%.

Question: With COc1cc2c(NC3CCN(C(C)C)CC3)nc(C3CCCCC3)nc2cc1OCCCN1CCCC1 as the compound, how does the result_ITMP read?
Answer: The result_ITMP was 60.7%.

Question: How did the result_ITMP turn out when O=C(O)[C@]1(Cc2cccc(Nc3nccs3)n2)CC[C@@H](Oc2cccc(Cl)c2F)CC1 was run?
Answer: The result_ITMP was 3.96%.

Question: COc1ccc2c(c1OC)C(=O)O[C@H]2[C@H]1c2c(cc3c(c2OC)OCO3)CCN1C was tested. Which result_ITMP did it give?
Answer: The result_ITMP was -1.85%.

Question: COc1c2occc2cc2ccc(=O)oc12 was tested. Which result_ITMP did it give?
Answer: The result_ITMP was 11.7%.

Question: N=C(NCCCCCCNC(=N)NC(=N)Nc1ccc(Cl)cc1)NC(=N)Nc1ccc(Cl)cc1 was tested. Which result_ITMP did it give?
Answer: The result_ITMP was 26.4%.

Question: NCc1ccccc1CC(=O)N[C@@H]1C(=O)N2C(C(=O)O)=C(CSc3nnnn3CC(=O)O)CS[C@H]12 was tested. Which result_ITMP did it give?
Answer: Its result_ITMP is -2.42%.

Question: How did the result_ITMP turn out when Cn1c(=O)c2c(ncn2CC(=O)Nc2ccc(-c3ccccc3)nn2)n(C)c1=O was run?
Answer: The result_ITMP was -2.21%.

Question: For CCc1ccccc1OC[C@@H](O)CN[C@H]1CCCc2ccccc21, which result_ITMP is on record?
Answer: Its result_ITMP is 39.1%.

Question: For CC(C)CC(N)=O, which result_ITMP is on record?
Answer: The result_ITMP was -2.37%.

Question: How did the result_ITMP turn out when Cc1cc2sc(NC(=O)Cc3ccccc3)nc2cc1Cl was run?
Answer: Its result_ITMP is -2.21%.

Question: For Oc1ccc2ccccc2c1, which result_ITMP is on record?
Answer: The result_ITMP was 2.96%.

Question: CCOC(=O)[C@@H](N)Cc1ccc(-c2cc(O[C@H](c3ccc(Cl)cc3-n3ccc(C)n3)C(F)(F)F)nc(N)n2)cc1 was tested. Which result_ITMP did it give?
Answer: The result_ITMP was 2.15%.

Question: C[N+]1(C)CCC(OC(=O)C(O)(c2ccccc2)C2CCCC2)C1 (stereo not drawn) was tested. Which result_ITMP did it give?
Answer: Its result_ITMP is 5.08%.

Question: With COc1ccc(CNC(=O)c2sc3nc(C)cc(C)c3c2N)cc1 as the compound, how does the result_ITMP read?
Answer: Its result_ITMP is 0.46%.

Question: For O=C(O)[C@@H]1C[C@@H](C2CCCCC2)CN1C(=O)CP(=O)(O)CCCCc1ccccc1, which result_ITMP is on record?
Answer: Its result_ITMP is -0.11%.

Question: With O=C(Nc1cccc(Cl)c1)c1ccccn1 as the compound, how does the result_ITMP read?
Answer: The result_ITMP was -2.47%.

Question: CN(C(=O)CN1C(=O)COc2cc(Cl)c(Cl)cc21)[C@@H](CN1CCCC1)c1ccc(-c2cccc(C(N)=O)c2)cc1 was tested. Which result_ITMP did it give?
Answer: The result_ITMP was 41.8%.

Question: Clc1ccc(CCC(Cn2ccnc2)Sc2c(Cl)cccc2Cl)cc1 (stereo not drawn) was tested. Which result_ITMP did it give?
Answer: The result_ITMP was 15.2%.

Question: Which result_ITMP does the source give for N[C@H](C(=O)O)c1ccc(O)c(C(=O)O)c1 here?
Answer: Its result_ITMP is -2.54%.
